From PubChem BioAssay (EPA / NIEHS)
“And” between values parts separate entries of the source, which are not always exact repeats. Identical values can stand only once. Inconclusive results, whose numbers are uncertain, are shown with a selection of clear calls. Potencies beside an inconclusive call are fits to weak or partial responses and may not hold up. The source made the active and inactive calls. The calls were made as follows: active = hit-call score of the fitted dose curve at least 0.9, where 1 is the maximum; inconclusive = response in the unintended direction; inactive = score below 0.9.

read-out: HMG-CoA synthase (HMGCS2), HMGCS2 (gene 3158); test: CLD_HMGCS2_24hr: CellzDirect (CLD) Gene Expression Assay for HMG-CoA synthase (HMGCS2) at 24 hours (AID 2283691)
Experimental: CLD_24hr is a cell-based, multiplexed-readout assay that uses hepatocyte, a human liver primary cell, with measurements taken at 24 hours after chemical dosing in a 96-well plate.CLD_HMGCS2_24hr is one of 16 assay component(s) measured or calculated from the CLD_24hr assay. It is designed to make measurements of mRNA induction, a form of inducible reporter, as detected with chemiluminescence signals by Quantitative Nuclease Protection Assay (qNPA) technology.Data from the assay component CLD_HMGCS2_24hr was analyzed at the endpoint, CLD_HMGCS2_24hr, in the positive analysis fitting direction relative to DMSO as the negative control and baseline of activity. Using a type of inducible reporter, gain-of-signal activity can be used to understand changes in the reporter gene as they relate to the gene HMGCS2. Furthermore, this assay endpoint can be referred to as a primary readout. To generalize the intended target to other relatable targets, this assay endpoint is annotated to the lyase intended target family, where subfamily is HMG-CoA synthase.
Human hepatocyte cultures were treated daily for two consecutive days with fresh dosing solutions containing appropriate concentrations of the 320 ToxCast chemicals (chemical identities were blinded to CellzDirect and other ToxCast collaborators), vehicle control (0.2% DMSO), and positive control inducers as summarized in Table 1. Due to the large number of treatment groups and chemicals examined, the ToxCast chemicals were divided into two groups (spanning two independent cultures of hepatocytes from separate donor preparations (Hu778: ToxCast plates 1 and 2; Hu776: ToxCast plates 3 and 4). Each preparation of human hepatocyte cultures was treated with respective vehicle control, medium only control, set of six positive controls/reference chemicals for the five hepatic receptor pathways, and a subset of eight of the ToxCast chemicals (indoxacarb, pyrithiobac-sodium, norflurazon, cyhalofop-butyl, methomyl, thiram, acetochlor, and propiconazole). These replicate data, coupled with internal replicates designed within the blinded ToxCast chemical library, provided additional data to evaluate interindividual differences between hepatocyte preparations and their potential impact on chemical profiles.Cell morphology and integrity were evaluated using phase-contrast microscopy as an indicator of hepatocyte cell health (Tyson & Green, 1987). Cultures for each treatment group (i.e., media, vehicle [0.2% DMSO], positive control inducers [multiple concentrations], and the ToxCast chemicals [multiple concentrations]) were observed and cell morphology was assessed relative to vehicle control cultures at each harvest time point (0, 6, 24, or 48 h). […] Images were evaluated at the conclusion of the study to assess changes in cell integrity and account for the effects of chemical exposure on uncharacteristic changes in concentration-dependent gene expression profiles. The results from these determinations of apparent cytotoxicity were annotated (yes/no) alongside the corresponding qNPA data for reference.At the conclusion of each treatment period, hepatocyte cultures (96-well) were washed with 1 volume of HBSS, lysed by addition of 25 ul ArrayPlate lysis buffer (HTG, Tucson, AZ), and 70 ul/well of Denaturation Oil, denatured by incubation at 95C for 10 min, and frozen at approximately -70C until analysis by nuclease protection assay (qNPA) (Roberts et al., 2007). For qNPA analysis, cell lysates were thawed at 50C for approximately 30 min, qNPA probes were added, and samples were incubated at 95C for 10 min to begin the detection process by denaturing the target RNA, dissociating the duplexes and secondary structure hybridization. At the conclusion of the hybridization period, S1 nuclease reagent was added to each sample to digest all nonprotected nucleotides at 50C for 60-90 min. […]

AC50, inconclusive:
COC(=O)CSc1cc(N=c2sc(=O)n3n2CCCC3)c(F)cc1Cl 0.933 µM
CCCCC(CC)CN1C(=O)C2C3C=CC(C3)C2C1=O (configuration not stated) 3.97 µM
O=C(Nc1ccc([N+](=O)[O-])cc1Cl)c1cc(Cl)ccc1O 0.00722 µM
CCN(CC)C(=O)c1cccc(C)c1 0.0004 µM
CCNc1nc(N)nc(Cl)n1 20 µM
COC(=O)c1ccc(I)cc1S(=O)(=O)NC(=O)Nc1nc(C)nc(OC)n1 36.9 µM
C=CCOC(Cn1ccnc1)c1ccc(Cl)cc1Cl (configuration not stated) 3.97 µM
CCCN(CCC)C(=O)SCC 328 nM and 3.97 µM
CCN(Cc1c(F)cccc1Cl)c1c([N+](=O)[O-])cc(C(F)(F)F)cc1[N+](=O)[O-] 3.38 µM

outcome, inactive:
COC(=O)c1ccccc1S(=O)(=O)NC(=O)Nc1nc(OC(F)F)cc(OC(F)F)n1
CCOC(=O)C(C)Oc1ccc(Oc2nc3ccc(Cl)cc3o2)cc1 (configuration not stated)
C#CCOC(=O)[C@@H](C)Oc1ccc(Oc2ncc(Cl)cc2F)cc1
OB(O)O
COC(=O)c1ccc(CNS(C)(=O)=O)cc1S(=O)(=O)NC(=O)Nc1nc(OC)cc(OC)n1
CCC(C)OC(=O)N1CCCCC1CCO (configuration not stated)
COC(=O)c1c(Cl)nn(C)c1S(=O)(=O)NC(=O)Nc1nc(OC)cc(OC)n1
CCSC(=O)N(CC(C)C)CC(C)C
